Measured values reported in the supplement of paper PMC3724861.
The list shows a part of the results.

system: T1, Caupolican (Caup) homeodomain DNA-binding domain; assay: PBM E-score (8-mer, recovered from the published 9-mer minima) (E-score (dimensionless, -0.5 to 0.5)); Drosophila protein; higher = stronger relative binding preference, active = 0.31 or more
T1 sequence: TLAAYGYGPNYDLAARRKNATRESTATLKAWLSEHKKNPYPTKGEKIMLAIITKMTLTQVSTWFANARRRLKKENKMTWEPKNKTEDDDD
How it was run: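 Caup's homeodomain DNA-binding domain (residues 214-303) was made by in vitro transcription and translation and applied at 100 nM to custom-designed protein binding microarrays. Each value is an enrichment score that gives relative binding preference for a short DNA word, with higher meaning stronger. The 8-mer values were recovered from published 9-mer scores, each of which was the minimum of its two constituent 8-mer scores. A cutoff of 0.31 marks candidate sites.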

Sequence | PBM E-score
GACTACTA | inactive: 0.118
GAGACATC | inactive: 0.0461
CATGCGGG | inactive: -0.13
ATGGCTAC | inactive: 0.107
AGGCGGGA | inactive: -0.0983
CAAGCGTC | inactive: 0.00475
ATAAAGAT | inactive: 0.094
GCCCTACA | inactive: 0.0429
ACTTAGAC | inactive: 0.0462
AGCTTGTA | active: 0.368
GGAGAGAC | inactive: -0.0755
GTGTTAAC | inactive: 0.259
TCGTAGCA | ≥ 0.124
CGCCCACC | inactive: -0.126
TATAGTGA | inactive: 0.142
ACTTAAAT | inactive: 0.122
ACTGTAAG | inactive: 0.147
CACGGAAC | inactive: 0.13
CGTATAGA | inactive: 0.114
AGAAAGGC | inactive: -0.165
CGTCCTTC | inactive: -0.0875
TCTAGCAA | inactive: 0.0631
GCATCTAA | inactive: 0.0538
ACTTAGTC | inactive: -0.0129

Sequence | PBM E-score
ATGGGAAC | inactive: 0.0233
CCCTATCG | inactive: -0.116
CCTACCAC | inactive: -0.0428
ATAGCGGG | inactive: -0.163
CATCATAG | inactive: 0.0652
CAGTCGCG | inactive: -0.117
GGACACAA | inactive: 0.204
ATCTTGCG | inactive: 0.00858
ATGCTCAA | inactive: 0.0574
CACGTTTC | inactive: 0.086
ATCACTGG | ≥ 0.123
GGATGTCA | active: 0.311
CCGTGAGA | inactive: -0.116
CTCTGCTA | inactive: -0.135
ACGCAGTA | inactive: -0.0674
GTCGTAGA | inactive: 0.0905
AGCCCCCT | inactive: -0.322
CCACGCCA | inactive: -0.134
GCTGGTAC | inactive: 0.0272
ACGCGGAC | inactive: -0.0537
CTTGTAGC | inactive: 0.271
AGCCCACT | inactive: -0.166
CGGCGCGA | inactive: -0.157
CGTGGTGA | inactive: -0.017

Sequence | PBM E-score
CCACACAA | inactive: -0.0312
CATCCAGA | inactive: 0.00179
CGACGCGA | inactive: -0.122
GGCTCAGA | inactive: -0.169
GGCATCCC | inactive: -0.126
ACCGGATG | inactive: -0.0259
AGGATGAT | inactive: 0.0534
GGCACTAA | inactive: -0.0822
ACGGTGCT | inactive: -0.104
CGGCAAGA | inactive: -0.064
CCGGGTCG | inactive: -0.168
GGTGCTGA | inactive: -0.0737
AAAAATAG | inactive: 0.0881
AATGGTAC | inactive: 0.18
ACATCCAC | inactive: 0.188
AGCCGTCC | inactive: -0.218
AAAGTACA | inactive: 0.276
ACTTTGAT | inactive: -0.0427
GAGTGTTA | inactive: 0.192
TCTCGCAA | inactive: -0.0677
GAGGGCTA | inactive: -0.111
TCTGATCA | inactive: 0.0942
GAGCATCA | inactive: -0.0449
CAACCTTC | inactive: 0.0914

Sequence | PBM E-score
AGTAAGCA | ≥ 0.105
GCTTTTCC | inactive: -0.089
CTATGCGC | inactive: -0.0646
AGCTCCTA | inactive: -0.0807
CAAAACAG | inactive: 0.15
GGGGACTA | inactive: -0.0613
CTGGTACA | active: 0.319
GAAAGGCC | inactive: -0.285
GGGAACCA | inactive: -0.0705
GCTCTCAA | inactive: -0.138
AGCCAAGC | inactive: -0.107
ATAGCAGA | inactive: 0.0458
AAGCCGCA | inactive: -0.134
ATGGTTTG | inactive: 0.0184
GAAGTCGA | inactive: -0.0227
AACTGTTG | inactive: 0.151
GATTCCCC | inactive: -0.144
CTACAAAA | inactive: 0.123
AATCTTTG | inactive: 0.0886
GCAGCTGA | inactive: -0.0532
AGGTAAAA | inactive: 0.0159
TTGTACAA | active: ≥ 0.44
GCGACAGA | inactive: 0.0849
GAACACCC | inactive: 0.0872

Sequence | PBM E-score
AGCCACCG | inactive: -0.224
CTAGGTCC | inactive: -0.16
GGGTGCCA | inactive: -0.135
TGCTCCCA | ≥ -0.0751
AAAACTAT | inactive: 0.132
CAAGACAA | inactive: 0.141
CTAGATAC | inactive: 0.0806
AATCGGAG | inactive: -0.105
ACCTGGAC | inactive: -0.0342
AGTAAAGA | inactive: 0.098
AATTTATC | inactive: 0.198
ACAACGAC | inactive: 0.246
GAGGCCTC | inactive: -0.367
ACGGCTCC | inactive: -0.138
CTCAGGTA | inactive: 0.0731
CAGTAAAC | inactive: 0.0166
ACGTTAGC | inactive: 0.0375
ATGTACTG | active: 0.339
CCTAGGCA | inactive: -0.148
CGAAGTAG | inactive: -0.0332
AAGTCCTG | inactive: -0.00972
TAAGGTGA | inactive: -0.0182
ACGCAGGC | inactive: -0.153
TGTTAAAA | inactive: 0.204

Sequence | PBM E-score
CCTGAAGC | inactive: -0.206
AAAAAGGA | inactive: -0.064
CTTTACGA | inactive: 0.0228
CGGTACCA | inactive: -0.0298
ATATTAAA | inactive: 0.213
CATAGCAA | inactive: 0.0993
GGTGAGCA | inactive: -0.0462
GCATGTAC | active: 0.413
CTCGTAAG | inactive: 0.0911
AGCTTATC | inactive: -0.0656
CGAGTGCA | inactive: 0.0315
CTCCCGAG | inactive: -0.208
CGGCTGAG | inactive: -0.153
CACTTCTC | inactive: -0.0707
ATTGCGAC | inactive: 0.0529
CCTTACTC | inactive: -0.0706
GCGGTGGA | inactive: -0.2
AGGCGGAT | inactive: -0.114
GAGAAAAA | inactive: -0.0131
CACCAAGG | inactive: -0.137
TCCGGTAA | inactive: 0.0191
CAAGACGC | inactive: -0.0603
GGAAAAAA | inactive: -0.0118
